Experimental data as given in PubChem BioAssay AID651820 (National Center for Advancing Translational Sciences (NCATS), 2012).
Out of some 340,000 compounds screened, about 12,000 (3.5%) were called active. The inconclusive results got no clear call from the source; some entries with a clear call stand among them for comparison. The call rests on the fitted dose curve; in most records, active means well fitted inhibition curve with a large enough effect; inconclusive means small, poorly fitted or top-dose-only effect, or another doubt; inactive means no such curve, though single readings can be large or run the other way. Potencies of inconclusive entries are left out as doubtful fits.

Assay: qHTS Assay for Inhibitors of Hepatitis C Virus (HCV)
Conditions: Huh7.5.1 HCVcc-Cre (HCVcc is cell-culture hepatitis C virus) infection, luciferase reporter, 44 h; series mostly up to 41.8 µM
Method in brief: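 Antiviral activity was scored by luciferase reporter output from cells infected with HCVcc-Cre (~0.5 moi) in presence of compound, 44 h infection period, cells seeded 1,000/well 4 h prior.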
Potency means the concentration at half of the fitted maximal effect; tags describe the fitted curve by direction and shape.

SMILES | Potency
CCC(=O)Nc1ccccc1 | inconclusive [inhibitor, single point]
COc1cc2c(cc1OC)/C(=C/C(=O)c1cccc([N+](=O)[O-])c1)NCC2 | inconclusive [inhibitor, single point]
COc1ccc(-n2c(C)cc(C(=O)CSc3nn4c(=O)c(C(C)(C)C)nnc4s3)c2C)cc1 | inconclusive [inhibitor, partial curve]
CCc1c(O)nc(N2CCN(Cc3ccccc3)CC2)[nH]c1=O | inactive
Cc1cn(-c2cc(NC(=O)c3ccc(C)c(NC(=O)c4cccc(-c5cn[nH]c(=O)c5)c4)c3)cc(C(F)(F)F)c2)cn1 | inconclusive [inhibitor, partial curve]
Cc1onc(-c2ccccc2)c1C(=O)OCC(=O)NCc1ccc(F)cc1 | inconclusive [inhibitor, single point]
Cc1cccc(C(=O)OCC(=O)c2c(C)[nH]c3ccccc23)c1O | inconclusive [inhibitor, single point]
COc1ccc(OC)c(NC(=O)c2nnn(Cc3ccc(Br)cc3F)c2N)c1 | inconclusive [inhibitor, single point]
COc1ccc(/C=C/C(=O)c2ccc(NS(=O)(=O)c3ccc(C)cc3)cc2)cc1O | inconclusive [inhibitor, partial curve]
Cn1c(=O)n(CCc2ccccc2)c(=O)c2c1nc1n2CCCN1CCc1ccccc1 | inconclusive [inhibitor, single point]
CCOC(=O)c1ccc(NC(=O)NCc2ccccc2OC)cc1 | active: 11.2 µM
CC(C)OC(=O)CN1C(=O)S/C(=C/c2ccc(N3CCCCC3)o2)C1=O | inconclusive [inhibitor, partial curve]
C=CC[C@]12C[C@@H](OC)C(=O)C=C1O[C@@H](c1ccc(OC)c(OC)c1)[C@H]2C | inconclusive [inhibitor, single point]
CCS(=O)(=O)N1Cc2ccccc2CC1C(=O)Nc1nc2c(C)cccc2s1 (stereo not given) | inconclusive [inhibitor, single point]
CC(C)(C)OC(=O)N1CC=C2C(C#N)=C(N)C(C#N)(C#N)C(c3cccs3)C2C1 (stereo not given) | inconclusive [inhibitor, single point]
CCCCC(=O)NC(c1ccccc1Cl)c1ccc2cccnc2c1O (stereo not given) | active: 2.24 µM
Cc1nc(CN(C)C(=O)C2CCC(=O)N(CCc3cccc(F)c3)C2)cs1 (stereo not given) | inactive
Cc1ccc(S(=O)(=O)N2CCOCC2)cc1C(=O)OCC(=O)N1CCc2ccccc2C1 | inconclusive [inhibitor, partial curve]
CCC(C)Sc1ccc(-c2nc3ccccn3c2NCc2ccccc2)cc1OC (stereo not given) | inconclusive [inhibitor, partial curve]
COc1cc(/C=C2\SC(=S)N(CCC(=O)Nc3ccccc3O)C2=O)cc(OC)c1OC | inconclusive [inhibitor, partial curve]

SMILES | Potency
COc1cccc(N2CCN(C(=O)CCNS(=O)(=O)c3ccc4c(c3)c(=O)n(C)c(=O)n4C)CC2)c1 | inconclusive [inhibitor, partial curve]
COc1cc(/C=C/C(=O)OCC(=O)NC(=O)NC2CCCC2)ccc1OCC#N | inconclusive [inhibitor, partial curve, poor fit]
COc1ccc(NC(=O)N(Cc2cc3ccc(OC)cc3[nH]c2=O)CC2CCCO2)cc1 (stereo not given) | inconclusive [inhibitor, partial curve]
CCOC(=O)C1CCN(C(=O)COC(=O)c2cc(-c3cccs3)nn2-c2ccccc2)CC1 | inconclusive [inhibitor, partial curve]
COc1ccc(S(=O)(=O)N2CCCCCC2)cc1C(=O)N(C)CC(=O)Nc1ccccc1C(F)(F)F | inconclusive [inhibitor, partial curve]
CN(C)c1cccc2c1c(NC(=O)Nc1ccccc1)nn2C | inactive
CC1CCCC(C)N1C(=O)COC(=O)CNC(=O)c1ccccc1F (stereo not given) | inactive
O=C(CCN1CCCC1Cc1ccccc1)c1ccc2c(c1)OCCO2 (stereo not given) | inconclusive [inhibitor, single point]
CN(C)c1ccc(/C=C(\C#N)c2ccccn2)cc1 | inconclusive [inhibitor, single point]
O=C(NCc1ccco1)/C(=C\c1ccc(F)cc1)NC(=O)c1ccco1 | inconclusive [inhibitor, single point]
COc1cc(C2C(C#N)=C(N)N(N(C)C)C3=C2C(=O)CC(C)(C)C3)cc(OC)c1OC (stereo not given) | inactive
COc1ccc(N2CCN(C(=O)COc3ccc4c(C)cc(=O)oc4c3)CC2)cc1 | inconclusive [inhibitor, partial curve, poor fit]
Cc1ccc(S(=O)(=O)N2CCOCC2)cc1C(=O)Nc1ccc(-c2cn3ccsc3n2)cc1 | active: 10 µM
O=C(Nc1ccccc1)Nc1n[nH]c2nnc(-c3ccccc3)c(-c3ccccc3)c12 | active: 14.1 µM
CCN1C(=O)[C@H]2[C@@H](c3ccc(-c4ccc(OC)cc4)c(OC)c3)N3CCCC[C@@]3(C(=O)OC)[C@H]2C1=O | inconclusive [inhibitor, single point]
Cc1ccc(Sc2c(C#N)c(-c3ccccc3)nn2C)cc1 | inconclusive [inhibitor, single point]
CCOC(=O)c1sc(/N=C/N(C)C)c(C(=O)OCC)c1C | inconclusive [inhibitor, single point]
COc1ccc(C#Cc2c(-c3ccccc3)n(-c3ccccc3)c3ccc(CO)cc23)cc1 | inconclusive [inhibitor, partial curve]
O=S(=O)(Nc1cc(C(F)(F)F)ccc1N1CCOCC1)c1ccc2ccccc2c1 | inactive
COc1ccc(CCC(=O)Nc2ccc3c(c2)OCCO3)cc1 | inactive
